The values below come from PubChem BioAssay (NCI).

The test has as its system NCI-H322M lung. Nature of the test: growth of human tumour cells (NCI), 48 h.

The structures appear in SMILES notation.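 Cells were grown in 96-well plates and exposed to each compound for 48 hours at five concentrations; endpoints were interpolated linearly between bracketing concentrations, or set to the highest concentration if not reached. Here, GI50 denotes the concentration required for 50% inhibition of growth. The concentration for full growth arrest is given as TGI.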

As to `N#Cc1ccc(/C=N/NC(=O)c2[nH]c3ccc(Br)cc3c2-c2ccccc2)s1`, the GI50 is 2.15 µM and the TGI amounted to 30.7 µM.
As for `O=C(CCCCCCNC(=O)C(O)(O)C(F)(F)F)Nc1ncc(-c2ccc(Br)cc2)s1`, the GI50 is 1.2 µM and the TGI worked out at 11.4 µM.
The corresponding values for `O=C1C2=C(C(=O)c3c(O)cccc31)C(c1ccco1)c1sc(=O)[nH]c1S2` (stereo unspecified) are 1.71 µM and 3.13 µM.
